Test results published in PMC6919601, “Identification of Plasmodium dipeptidyl aminopeptidase allosteric inhibitors by high throughput screening” (PLoS ONE, 2019).
About 230 (0.21%) of roughly 110,000 compounds showed an effect of 50% or more. The list shows a part of the results.

Target: DPAP1 (Plasmodium falciparum, UniProt Q8IIJ9)
Assay: primary screen, percent inhibition; read by cleavage of a fluorogenic dipeptide substrate; higher = more effect of the substance
Set-up: species or system P. falciparum D10 trophozoite lysates; single well
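Note: 30 min substrate incubation versus DMSO and 10 µM JCP410 controls.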

Chain of DPAP1 (Q8IIJ9 whole entry, looked up): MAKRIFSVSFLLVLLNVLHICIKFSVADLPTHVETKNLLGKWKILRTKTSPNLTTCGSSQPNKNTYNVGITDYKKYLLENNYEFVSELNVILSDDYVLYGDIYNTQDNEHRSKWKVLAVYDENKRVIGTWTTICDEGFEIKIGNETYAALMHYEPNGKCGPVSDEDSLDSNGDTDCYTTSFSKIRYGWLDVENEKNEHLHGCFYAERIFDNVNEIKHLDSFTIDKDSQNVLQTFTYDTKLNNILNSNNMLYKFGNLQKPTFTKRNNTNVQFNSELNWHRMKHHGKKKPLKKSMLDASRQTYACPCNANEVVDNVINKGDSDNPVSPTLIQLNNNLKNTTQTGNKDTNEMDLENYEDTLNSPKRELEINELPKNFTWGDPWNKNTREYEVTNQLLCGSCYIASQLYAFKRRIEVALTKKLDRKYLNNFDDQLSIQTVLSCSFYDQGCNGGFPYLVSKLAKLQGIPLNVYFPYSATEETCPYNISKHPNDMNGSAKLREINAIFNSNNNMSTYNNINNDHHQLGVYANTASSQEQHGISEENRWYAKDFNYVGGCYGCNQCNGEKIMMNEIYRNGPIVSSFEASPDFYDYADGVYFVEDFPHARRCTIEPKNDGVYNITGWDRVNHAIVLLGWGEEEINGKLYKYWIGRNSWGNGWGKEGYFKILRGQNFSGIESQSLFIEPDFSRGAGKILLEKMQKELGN

In order of falling “% Inhibition @ 10 uM” value:
1. COC(=O)/C(=C1\Oc2c(c(=O)oc3ccccc23)S1)C(F)(F)F  18.5%
2. CC(C)c1ccc(/C=C/C(=O)N2CCCC2)cc1  17%
3. CCCC1=C(C(=O)OCC)C(c2ccccc2OC)NC(=O)N1 (centres unmarked)  8.98%
4. CC(c1ccccc1)N1C(=O)NC(NC(=O)c2cccnc2)(C(F)(F)F)C1=O (centres unmarked)  7.84%
5. CCOC(=O)c1c(C)nc2ccc(Cl)cc2c1-c1ccccc1  7.5%
6. COc1ccc(CCNC(=O)c2ccc(-n3cnc4cccnc43)cc2)cc1OC  6.16%
7. Brc1ccccc1OCCCCCN1CCCC1  5.95%
8. CCOc1ccccc1N1CCN(C(=O)c2ccccc2)CC1  5.73%
9. CCOC(=O)C1CC(=O)OC12CCOC(C)(C)C2 (centres unmarked)  5.66%
10. Cc1nc2c(c(C)nn2-c2ccccc2)c(C)c1CCC(=O)NCc1cccnc1  5.65%
11. Cc1ccc(-c2cc(C(=O)Nc3ccc(S(=O)(=O)Nc4ncccn4)cc3)c3ccccc3n2)o1  5.63%
12. O=C(c1ccc2nc(-c3ccccc3)c(-c3ccccc3)nc2c1)N1CCC2(CC1)OCCO2  5.17%
13. CC(C)C(C(=O)NC1CCCCCC1)N1Cc2ccccc2C1=O (centres unmarked)  4.6%
14. CCOc1ccccc1CNC(=O)CN(C)c1nn2c(=O)cc(C)nc2s1  4.55%
15. O=C(NCc1ccc2c(c1)OCO2)c1cc2c(s1)-c1ccccc1S(=O)(=O)C2  4.4%
16. CCCn1c(=O)c(C(=O)Nc2nc(-c3ccc(Cl)cc3)cs2)c(O)c2ccccc21  4.33%
17. CC1CCCN(C2CC(=O)N(c3ccc(Br)cc3)C2=O)C1 (centres unmarked)  4.12%
18. CCCOc1ccc(/C=c2\sc3nc(-c4ccccc4OC)nn3c2=O)cc1  3.87%
19. C=CCc1cc(/C=C2/C(=N)N3C(=NC2=O)SN=C3S(C)(=O)=O)cc(OC)c1O  3.48%
20. COc1ccc(C2CC(=O)Nc3[nH]nc(-c4ccc(Cl)cc4)c32)c(OC)c1 (centres unmarked)  3.39%
21. CCOc1ccc(CNC(=O)C2CCCN(S(=O)(=O)N(C)C3CCCCC3)C2)cc1 (centres unmarked)  3.35%
22. O=C(O)CCCNC(=O)c1ccncc1  3.32%
23. O=C1NC(=S)N(c2cccc(Cl)c2)C(=O)/C1=C/c1cccs1  3.32%
24. Cc1cc(N2CCCC2)n2nc(C)c(-c3ccccc3)c2n1  3.19%
25. COC(=O)C1=C(C)NC(=O)CC1c1c(F)cccc1Cl (centres unmarked)  3.05%
26. CCOC(=O)N1CCN(C(=O)CN(c2cccc(C(F)(F)F)c2)S(=O)(=O)c2ccccc2)CC1  2.55%
27. c1coc(C2NCCc3ccccc32)c1 (centres unmarked)  2.16%
28. CC1CCN(c2nnc(-n3cccc3CN3CCN(c4ccccn4)CC3)s2)CC1  2.09%
29. Cc1sc2nc(-c3ccco3)oc(=O)c2c1C  1.8%
30. COc1ccccc1Nc1ccccc1C(=O)N1CCOCC1  1.67%
31. COC(=O)C1=C(C)N(Cc2ccco2)C(=O)/C1=C\c1cc(C)n(-c2cc(C)ccc2OC)c1C  1.63%
32. CCc1ccc2ncc(S(=O)(=O)c3ccc(C)cc3)c(O)c2c1  1.42%
33. Cc1cc(-c2ccccc2)c2c(C)c(C)sc2n1  1.4%
34. C=CCn1c(SCC(=O)N2CCCCCC2)nc2sc3c(c2c1=O)CCC3  1.35%
35. CCOc1ccc(S(=O)(=O)/N=C(\NC)c2ccccc2)cc1  1.31%
36. O=C(NCC1CCCO1)c1cc(S(=O)(=O)N2CCCCC2)c[nH]1 (centres unmarked)  1.17%
37. NC1=NC(=O)/C(=C\c2cccc(C(F)(F)F)c2)S1  1.13%
38. Nc1nnnn1/N=C/c1ccc(-c2cccc(Cl)c2Cl)o1  1.13%
39. N#Cc1cc2c(=O)n3ccccc3nc2n(-c2nccs2)c1=O  1.12%
40. Cc1ccc(C)c(OCC(=O)Nc2ccccc2)c1  1.08%
41. Cc1cc(C)n(-c2nc(-c3ccccc3)cc(-c3ccccc3O)n2)n1  0.827%
42. COc1ccc(OC)c2c1CCC1NCCOC21 (centres unmarked)  0.795%
43. CC1CC(S)=Nc2ccccc2N1C(=O)Nc1ccccc1 (centres unmarked)  0.583%
44. O=C(O)c1cc(-c2ccc3c(c2)OCO3)nc2cc3c(cc12)OCCO3  0.559%
45. CCCOc1ccc(C2C3(C#N)C(N)=NC4(OCCO4)C23C#N)cc1 (centres unmarked)  0.413%
46. COc1ccc(S(=O)(=O)NC(C)C)cc1OC  0.345%
47. COc1ccc(C2NC(=O)c3[nH]nc(-c4cccs4)c32)cc1 (centres unmarked)  0.208%
48. COc1ccc2oc(=O)cc(CN3CCN(Cc4ccc(OC)c(OC)c4OC)CC3)c2c1  0.00706%
49. CCCCN1C(=O)C2Cc3c([nH]c4ccccc34)C(c3cccnc3)N2C1=O (centres unmarked)  -0.0372%
50. COC(=O)c1ccc(S(=O)(=O)c2ccccc2)cc1  -0.178%
51. O=C1CCCc2nc(-c3ccccc3)cc(-c3ccccc3)c21  -0.233%
52. O=C(Nc1ccc2c(c1)OCO2)C1c2ccccc2Oc2ccccc21  -0.413%
53. O=S(=O)(NCC(c1ccccc1)N1CCC(O)CC1)c1ccc(Cl)cc1 (centres unmarked)  -0.671%
54. Cc1sc(NC(=O)Nc2ccc(Cl)cc2)c(C(N)=O)c1C  -0.891%
55. CC(C)c1ccc(N2C(=O)CSC23C(=O)Nc2ccccc23)cc1 (centres unmarked)  -1.06%
56. Cc1ccc(C2=NS(=O)(=O)N(C)C(C(=O)Nc3cnn(CC(=O)N4CCOCC4)c3)=C2)cc1  -1.06%
57. Cc1cccc(S(=O)(=O)Nc2ccc(Cl)c(C(F)(F)F)c2)c1  -1.16%
58. CC(NC(=O)c1cccs1)c1cc2c(cc1Cl)OCCCO2 (centres unmarked)  -1.28%
59. Cc1cc(N[C@H]2CCCCNC2=O)nc2ccccc12  -1.32%
60. c1ccc2c(c1)c(NCC1CCCO1)nn1nnnc21 (centres unmarked)  -1.34%
61. Cc1ccc(S(=O)(=O)N2CCCC(C(=O)N3CCC4(CC3)OCCO4)C2)cc1 (centres unmarked)  -1.34%
62. CC(C)C[C@H](NC(=O)OCc1ccccc1)C(=O)NC(C#N)CNC(=O)OC(C)(C)C (some centres unmarked)  -1.41%
63. COc1ccc(NC(=O)c2ccccc2Cl)cc1OC  -1.5%
64. CN(CCCNC(=O)c1ccc(CS(=O)c2ccc(Br)cc2)o1)Cc1ccccc1 (centres unmarked)  -1.57%
65. CCc1nc2cccnc2n1-c1ccc(CC(=O)NCc2ccc(F)cc2)cc1  -1.68%
66. Cc1ccc(N(Cc2ccc(F)cc2)C(=O)COc2ccc3ccccc3c2)cc1  -1.8%
67. O=S(=O)(c1ccc(Cl)nc1)N1CCCc2ccccc21  -1.88%
68. C#CC(C)(C)NC(=O)CCCCCN1C(=O)c2ccccc2C1=O  -1.98%
69. CN(C)c1ccc(/C=C(\C#N)c2nc(-c3ccc(Cl)cc3)cs2)cc1  -2%
70. Cc1ccc(-c2noc(CN(C(=O)c3ccc(C)c(Cl)c3)C(C)C)n2)cc1  -2.14%
71. COc1ccc(Cl)cc1S(=O)(=O)NCc1nc2nc(C)cc(C)n2n1  -2.17%
72. Cc1sc2ncn(CC(=O)NCC(=O)N(C)C3CCCCC3)c(=O)c2c1C  -2.17%
73. C#CCOc1ccc(C2C3=C(CCCC3=O)N(CCC(=O)O)C3=C2C(=O)CCC3)cc1Cl  -2.22%
74. Cc1nc2c(c(C)nn2C)c(C)c1CCC(=O)NCC(C)c1ccccc1 (centres unmarked)  -2.45%
75. c1ccc(N2CCN(Cc3cccs3)CC2)nc1  -2.56%
76. O=C(COCc1cc(-c2ccc(F)cc2)on1)NCc1cccs1  -3.1%
77. Cc1ccc(SCc2cc(O)nc(/N=C(\N)Nc3ccccc3)n2)cc1  -3.14%
78. CCC(=O)N1c2ccccc2N=C2CC(C)(C)CC(O)=C2C1c1cccn1C (centres unmarked)  -3.26%
79. COc1ccc2cc3cc(C(=O)NCCCN4CCC(C)CC4)oc3nc2c1  -3.35%
80. CCN1C(=O)S/C(=C\c2cccc(OC)c2OC(C)C)C1=O  -3.41%
81. CC(C)c1ccc(/C=C2/C(=N)N3C(c4ccccc4)=CSC3=NC2=O)cc1  -3.75%
82. CN1C(=O)C(=CNc2ccccc2-c2ccccc2)C(=O)N(C)C1=O  -4.67%
83. CCN(CC)c1nc2c(c(=O)n(C)c(=O)n2C)n1CC(=O)c1ccccc1  -4.89%
84. O=C(Cc1c(O)nc2ccccc2c1O)Nc1ccc(F)cc1  -4.98%
85. CC1CCCC(NC2CN3CCC2CC3)C1C (centres unmarked)  -5.11%
86. CN(Cc1ccc(F)c(Br)c1)CC(O)c1ccccc1 (centres unmarked)  -5.26%
87. O=S(=O)(NCc1ccccn1)c1ccc(-c2cc(C(F)(F)F)no2)s1  -5.31%
88. COc1ccccc1-c1c(C)nn2c(SCC(=O)N(C)Cc3ccccc3)cc(C)nc12  -5.32%
89. O=[N+]([O-])c1ccc(-c2cn3ccsc3n2)cc1  -5.5%
90. O=C(Nc1ccc2oc(-c3ccc(F)cc3)nc2c1)c1ccc(F)cc1  -5.92%
91. CCN1CCC(NCCc2ccc(F)cc2)CC1  -5.94%
92. Cc1ccc(CN2CCC(CNC(=O)CC(C)n3nc(C)cc3C)CC2)cc1 (centres unmarked)  -6.11%
93. c1ccc(-c2nnc(COc3ccc4ccccc4c3)o2)cc1  -6.72%
94. CC(=O)NC(=O)c1ccc(-c2ccc(Cl)cc2)o1  -7.27%
95. CCN(CC)c1c(S(=O)(=O)c2ccc(C)cc2)cnc2ccccc12  -7.48%
96. COC(=O)C(c1ccccc1)N1CCCCCC1 (centres unmarked)  -7.5%
97. CCOC(=O)c1cc(CC)sc1NC(=O)c1ccc2c(c1)OCO2  -8.17%
98. COc1cccc(N2C(=O)C3C4C=CC(C4)C3C2=O)c1 (centres unmarked)  -8.19%
99. O=C(NCc1ccccc1)C(=O)NC1CCCC1  -9.18%
100. CCOc1c(Cl)cc(C2C3=C(CCCC3=O)N(CC(=O)O)C3=C2C(=O)CCC3)cc1OC  -17.9%
101. c1ccc(CCc2nc(-c3ccc(-n4cccc4)cc3)no2)cc1  -36.9%
